Laboratory results published in the supplement of paper PMC11417369.
± gives the standard deviation of the averaged measurements. Some of the results follow.

Tested on: PfAP2-G AP2 domain (GST-tagged)
Test: gcPBM binding intensity (ln(normalized median fluorescence intensity)); higher = stronger DNA binding
In short: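 Probes on an Agilent 4 × 180k array were primer-extended, double-stranded and 36 bp long, taken from intergenic genomic regions, with negative controls added. GST-tagged P. falciparum DNA-binding domains from E. coli, about 25 μg on average, were applied to the array for 1 h in 1× PBS containing 1% milk, 0.2 mg/ml BSA, 0.5% salmon testes DNA and 0.03% Triton X-100. Binding intensity, obtained after Alexa488 anti-GST antibody detection and a 488 nm scan, is the highest Masliner-normalised natural-log median intensity across replicate spots of either probe orientation.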

Sequence | gcPBM binding intensity (ln)
AAAAAAAAAAATATATTATTTTACTTGTTTATTTTA [CACACA_negctrl_site1447] | 9.38 ± 0.19
CATTATAAGAAACACACACACATATATATATATATA [CACACA_site1051] | 10.1 ± 0.28
AAATTCTTAACCCAACGTACATATAATAAATTCTTA [XGTACX_site8538] | 11.1 ± 0.65
TAAACCAAACAATTATGTATAAGATGTATATATATA [GTGCAC_negctrl_site438] | 9.88 ± 0.45
CTTACAAATAAACAACGTACTTATTCGAATTATGCT [XGTACX_site2431] | 11 ± 0.47
AAAAAAATTCTTGGCGCACACACTTTAAAAATTAAA [CACACA_site597] | 10.5 ± 0.34
AAGGATTACAAAAAAAGTACAAATGGATTTTTTCCC [XGTACX_site8905] | 11.3 ± 0.81
AACCACATGGTGTAATGTACATTACCTTAACAATAA [XGTACX_site3055] | 10.7 ± 0.42
AAATATTATATATATACACACACACCGGCATGCACA [CACACA_site7916] | 9.885 ± 0.049
TATAATAAAATTGGTAGTACATTAATTTATGTATAG [XGTACX_site3059] | 11.5 ± 1.1
TATTATTTTTTTTTTTGTACATATATGTATATATAT [XGTACX_site8471] | 10.9 ± 0.61
CATACAGACGAACACACACACATATAAATATAAATA [CACACA_site6443] | 10.2 ± 0.25
TACATATATAAAAATTGTACACTTCATAAGAAAAAA [XGTACX_site4347] | 11.2 ± 0.7
TTAAATAAGTTCTTCACACATATATATATATATATA [CACACA_site4742] | 10.1 ± 0.36
AAATGCGCCATGTGTACACATATATATATATATATA [CACACA_site4649] | 11.5 ± 0.88
GTTTTAAAATTAAATATTATGGCATAATTCAAGAAA [GTGCAC_negctrl_site721] | 10 ± 0.11
AAAATTTTTTAACACTGTACTTGTAATATTAAAACT [XGTACX_site8369] | 11.5 ± 1
TTTTTTTTTTATTTTTGTACATATATTTCAGTATTA [XGTACX_site8396] | 11 ± 0.71
TAATTATTCTATTAAGTGCATATATTTTTAAAAAGA | 9.925 ± 0.092

Sequence | gcPBM binding intensity (ln)
ATAATATTCGAGTGTGCACACAAACATACATATATA [CACACA_site3396] | 10.6 ± 0.43
ATTTTTATTAAAATATGTACGTATTTTACTCATACA [XGTACX_site5330] | 11.6 ± 0.8
ATACAGAAAAAAAACACACACACATAATATACATAC [CACACA_site1933] | 10.11 ± 0.078
ACAGATATATTTATTTGTACATATCACCAAAATGGA [XGTACX_site5644] | 10.9 ± 0.26
ATATATATATATCACCGTACTTATATAATAACATGA [XGTACX_site4398] | 10.9 ± 0.6
AAAAATGAGAAACACACACACATATATATATATATA [CACACA_site2228] | 10 ± 0.31
TCTTTAAATCGAGTGTTAAATAATATAATATAAAAA [CACACA_negctrl_site1507] | 9.93 ± 0.2
AACCAATATGAGTATACACACATAAATATAAATATA [CACACA_site5968] | 10.1 ± 0.26
AAAAAAAAAAAAGATACACACAAAAATGGATATATA [CACACA_site7069] | 9.95 ± 0.11
TTAATATAATAAAATCGTACAAATAAAATATAAAAT [XGTACX_site8730] | 11.1 ± 0.65
AAGTTTATTTGTTGCACACATATAAGTAGAGAAAAT [CACACA_site3027] | 10.3 ± 0.26
TTTTCAAAATAATATTATATCAAATGCTAAAAAGAA [TGCATGCA_negctrl_site588] | 9.89 ± 0.18
TAAGAATAATGACATAGTACAATTTAATAGATCTAA [XGTACX_site3670] | 10.6 ± 0.35
ATTAAATACTTCGATTGTACAATTTTTTTTTTTTTT [XGTACX_site832] | 11 ± 0.64
TACAGATATTATTGCACACATATAAAATACCCCCAA [CACACA_site6014] | 10.9 ± 0.5
TTACGTTATATACATACACACCCACGCACAAAAAAA [CACACA_site6537] | 10.6 ± 0.51
TAATATTTATGTTAATGTACAAAAAAACAAAACAAA [XGTACX_site301] | 10.8 ± 0.36
GTATGTATATATGTATGTACTTATGTATCATTATTA [XGTACX_site2438] | 11.2 ± 0.83
ATAATATATATTAAACGTACATAAAATAATTATGGA [XGTACX_site1670] | 11.4 ± 0.7

Sequence | gcPBM binding intensity (ln)
ATAAAACAATAAAATTGTACATAAATTGATTATACT [XGTACX_site6723] | 10.9 ± 0.49
GAATAAATAGACGAGTGTACTTTTTTTTAAAAAAAA [XGTACX_site7880] | 11.6 ± 0.91
ACGTTTACGTTATTATGTACGTAATATATCATACCT [XGTACX_site5006] | 11.5 ± 1.1
GAAAAAAAAAAAAAAAAAAAAAGGAAAAAAGTGAAA [CACACA_negctrl_site996] | 9.52 ± 0.11
GTATATATTTAAACACGTACACAAAACCCAAAAAAT [XGTACX_site8110] | 11.8 ± 0.96
ATACACTCACTCACACGTACAGACAACGGACGATCA [XGTACX_site1097] | 11.5 ± 0.88
AATTAAATTAGAAGCACACACATATTTATATTTATA [CACACA_site7552] | 9.995 ± 0.049
TTTCATTTAGCTTTTACACACTATATATCATTGATT [CACACA_site6158] | 9.93 ± 0.15
AATAATAACACCGTGGATACACAATAACAAAGAACT [CACACA_negctrl_site532] | 10.3 ± 0.11
AAATATTTTTTTTCTACACACATACAAATATATATT [CACACA_site5325] | 10.26 ± 0.085
TTGCAACTCTTCAATCGTACACATTATTTATTATAT [XGTACX_site1377] | 11.3 ± 0.64
TACATATACATATACACACACACACCCAAATAAATA [CACACA_site1344] | 10.3 ± 0.35
TGAGAGTTCTCATATGCACACAAAAAACTTTCATTT [CACACA_site7898] | 10.035 ± 0.007
TTTTTTTTAAAAAACACACACCTAAACAAGATATTT [CACACA_site6541] | 10.2 ± 0.21
CATATTTTTAAATACACACACATAAAAAAAAAAAAA [CACACA_site1095] | 10.1 ± 0.42
AAATAAAAAAGTAGTACACACTTCACGATATTTTTT [CACACA_site6015] | 11.6 ± 1
AAAAATATAAACTGCACACACACAAAAAAAGAAAAA [CACACA_site648] | 10.1 ± 0.16
TTATTATAATCATTAGTGCATATATTATTTTTATAT | 9.85 ± 0.042
TATATACATATATGTACACACATTACAGATGTACAT [CACACA_site966] | 11.7 ± 0.93
